From PubChem BioAssay AID2202238 (Ras Initiative Chemistry Research Team, Frederick National …, 2025)
The list shows a part of the results. Further columns of the screen follow, without active or inactive calls.

Molecular target: GTPase KRas (Homo sapiens) (UniProt P01116)
Test: Fragment capture on engineered cysteines, share of protein labelled (AID 2202238)
Parameters: protein at 5 µM with 500 µM competing thiol for 1.5 h
Conditions: KRAS G12D cysteine mutants, disulfide tethering, MALDI-TOF labeling, stronger effect = higher value, fragment at 500 µM
[1] = measured here: G60C mutant labeling
[2] = measured here: G75C mutant labeling
[3] = measured here: H94C mutant labeling
[4] = measured here: I36C mutant labeling
[5] = measured here: L120C mutant labeling
[6] = measured here: M67C mutant labeling
[7] = measured here: M72C mutant labeling
[8] = measured here: N26C mutant labeling
[9] = measured here: N86C mutant labeling
[10] = measured here: P121C mutant labeling
[11] = measured here: S122C mutant labeling
[12] = measured here: S136C mutant labeling

UniProt P01116, sequence (P01116 whole entry, looked up, the tested form may be a part): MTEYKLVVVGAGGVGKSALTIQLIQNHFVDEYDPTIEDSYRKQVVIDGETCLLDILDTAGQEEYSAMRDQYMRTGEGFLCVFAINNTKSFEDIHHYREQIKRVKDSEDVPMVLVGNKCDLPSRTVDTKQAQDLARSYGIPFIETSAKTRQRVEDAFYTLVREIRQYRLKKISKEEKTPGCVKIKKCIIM

Structure (SMILES) | percent labeling [1] | percent labeling [2] | percent labeling [3] | percent labeling [4] | percent labeling [5] | percent labeling [6] | percent labeling [7] | percent labeling [8] | percent labeling [9] | percent labeling [10] | percent labeling [11] | percent labeling [12]
Cc1c(C(=O)NCCS)oc2c1ccc1ccccc12 | 39.5% | 24.1% | 19.4% | 14.2% | 26.1% | 10.5% | 33.4% | 32% | 14.2% | 16.7% | 12.1% | 19.2%
C[C@H]1C[C@H](NC(=O)CCS)c2ccsc2S1(=O)=O | – | 12.3% | 45% | 47% | 33% | 34.4% | 25.4% | – | 33.6% | 34% | 32.4% | 63.9%
O=C(CCS)N1CCN(Cc2ccncc2)CC1 | – | 9.3% | 19.4% | 28% | 19.1% | 31.4% | 12.1% | – | 9.3% | 23.6% | 23.1% | 43.1%
O=C(NCCS)c1ncccc1-n1ncc2ccccc21 | 50.1% | 18.9% | 42.5% | 29.6% | 50.9% | 39.7% | 35.8% | 39.1% | 30.7% | 35.4% | 32.2% | 55.3%
CC(C)Cc1cc(C(=O)NCCS)cc(=O)[nH]1 | 36.5% | 22.8% | 30.3% | 30.8% | 36.2% | 38.5% | 67.2% | 46.9% | 20.1% | 33% | 42.8% | 66.7%
CN1CCN(C(=O)CCS)c2cc(F)ccc21 | – | 21% | 40.8% | 22.6% | 13.2% | 24% | 49.2% | – | 31.7% | 22.9% | 22.7% | 41.9%
Cc1nc(CC(C)C)c(C(=O)NCCS)s1 | 42.3% | 16.5% | 37% | 23.5% | 31.1% | 37% | 38% | 41.7% | 25.7% | 29% | 30.4% | 54.2%
O=C(CCS)NCc1ccncc1C(F)(F)F | – | 9.5% | 15.7% | 17.4% | 14.5% | 17.4% | 21.6% | – | 10.6% | 22.9% | 18.5% | 24.7%
O=C(CCS)N1CCC(Cc2nc(-c3ccc(F)cn3)no2)CC1 | – | 15.3% | 30.4% | 33.1% | 26.8% | 35% | 32.5% | – | 29.7% | 26% | 29.3% | 49%
O=C(CCS)N1CCc2c([nH]c(=O)[nH]c2=O)C1 | – | 21.8% | 24.9% | 47.7% | 26% | 34.8% | 28.1% | – | 29% | 33.2% | 49.9% | 58.7%
COc1ccc(C(=O)NCCS)c(OC)c1OC | 40.1% | 24.2% | 38.6% | 22.7% | 38.2% | 39% | 32.9% | 43.3% | 25.9% | 32.8% | 31.1% | 53.2%
CC(=O)N(C)Cc1ccccc1NC(=O)CCS | – | 11.3% | 44.1% | 31.2% | 29.8% | 33% | 18.3% | – | 21.8% | 27.7% | 28.5% | 50.2%
Cc1nn(Cc2ccccc2)c(C)c1NC(=O)CCS | – | 13.4% | 41.4% | 41.2% | 37.4% | 61.2% | 31% | – | 22.8% | 37.2% | 37.3% | 60.7%
CN(C)c1cnc(CNC(=O)CCS)cn1 | – | 10.9% | 23.5% | 31.1% | 25.7% | 29.7% | 21.6% | – | 18.6% | 28.6% | 33.7% | 41.2%
O=C(CCS)N1CCC(C(O)c2ccc(F)cc2)CC1 (centres undefined) | – | 18.3% | 40.4% | 47.3% | 38.8% | 60.1% | 30% | – | 29.7% | 36.5% | 29.7% | 64.7%
O=C(NCCS)c1ccccc1OC1CCCC1 | 36.4% | 18.6% | 47% | 16.9% | 13.5% | 18.6% | 57.3% | 28.4% | 7.4% | 16.2% | 13.4% | 24.5%
Cc1nn(C2CCN(C(=O)CCS)CC2)c(=O)[nH]1 | – | 12.2% | 28.6% | 35.8% | 34.5% | 38.1% | 22.1% | – | 27.8% | 34.6% | 37.5% | 54.1%
O=C(NCCS)c1ccc(NC(=O)C2CC2)s1 | 24.8% | 14.6% | 20.2% | 16.1% | 29.1% | 20.6% | 36.2% | 35.5% | 24.1% | 16.2% | 18.2% | 42.2%
O=C(NCCS)c1cc2ccc(Br)cc2c(=O)o1 | 13.8% | 4.8% | 6.9% | 13.8% | 6.4% | 6.8% | 26.3% | 26% | 3.8% | 33.3% | 5.3% | 15%
CC(C)C(NC(=O)CCS)c1nnc2n1CCC2 (centres undefined) | – | 5% | 21.9% | 31.9% | 23.6% | 30.9% | 9.1% | – | 12.2% | 26.2% | 36.6% | 49.3%
CN(C)CCOc1cccc(NC(=O)CCS)c1 | – | 17.7% | 36.9% | 55.4% | 36.8% | 43.6% | 36.6% | – | 32.3% | 30.1% | 34% | 49.2%
O=C(CCS)Nc1cnn(COc2ccc(Cl)cc2)c1 | – | 9.2% | 15.4% | 15.2% | 11.7% | 19.4% | 27.3% | – | 11.5% | 13% | 9.8% | 22.7%
O=C(CCS)Nc1ccc(NC(=O)c2ccco2)c(Cl)c1 | – | 7% | 6.4% | 16.2% | 0% | 9.6% | 32.7% | – | 3.4% | 9.1% | 6.4% | 16.9%
O=C(NCCS)C(c1cccc(F)c1)N1CCOCC1 (centres undefined) | 48.4% | 24.6% | 40.5% | 28.8% | 48.1% | 41.9% | 26% | 39.6% | 28.2% | 34.4% | 35.6% | 75.9%
CCOc1cccnc1N1CCN(C(=O)CCS)CC1 | – | 15.9% | 31.9% | 35.4% | 29.5% | 45.4% | 22% | – | 15.9% | 34.7% | 35% | 64.4%
CC(NC(=O)C12CC3CC(CC(C3)C1)C2)C(=O)NCCS (centres undefined) | 39.1% | 26% | 32.8% | 21.2% | 52.7% | 30% | 32.1% | 34.8% | 25.6% | 34.6% | 30.2% | 44.8%
O=C(CCS)N1CCN(c2nn3cc(-c4ccc(F)cc4)nc3s2)CC1 | – | 16.3% | 9% | 26.6% | 5.2% | 15.7% | 7.8% | – | 0% | 8.2% | 4.8% | 32.5%
Cc1nn(C)c(Oc2cccnc2)c1NC(=O)CCS | – | 8.4% | 29.7% | 39% | 31.2% | 38.2% | 12.8% | – | 12.4% | 33.6% | 30.6% | 51.6%
O=C(NCCS)C1CC(O)(c2cccc(Cl)c2)C1 (centres undefined) | 45.7% | 19.7% | 29.9% | 28.6% | 38.2% | 32.6% | 44.2% | 47.1% | 28.6% | 44.1% | 29.5% | 49.6%
Cn1cc(C(=O)NCCS)c(-c2ccc3c(c2)OCCCO3)n1 | 41.4% | 22.2% | 39% | 24.5% | 55.2% | 37.4% | 42.1% | 36.8% | 17% | 27.3% | 25.2% | 41.6%
